Values after ≈ are worked out from the molar mass of the structure shown. Values joined by “and” are separate entries in the source; they are usually repeats but may differ in a detail not shown here. Identical values can stand only once. MIC of E. coli strains with or without a β-lactamase plasmid, in LB (broth microdilution, 22 h, 37 °C, OD600 below 0.2; fosfomycin by agar dilution); pBAD18 genes induced with arabinose where stated. Higher = less susceptible. No active / inactive call. Values are arithmetic means of replicate MICs, so they fall between dilution steps. Colistin is a mixture; one drawing stands for it.
Assays:
Experiment in all cases: Broth microdilution in LB (fosfomycin: agar dilution), 22 h at 37 °C; MIC = lowest dose with OD600 below 0.2.
[1] = test system: Escherichia coli BW25113 (arabinose: 0.5% w/v)
Escherichia coli ECOR01 = test system: Escherichia coli ECOR01
Escherichia coli ECOR27 = test system: Escherichia coli ECOR27
Escherichia coli ECOR35 = test system: Escherichia coli ECOR35
Escherichia coli ECOR42 = test system: Escherichia coli ECOR42
Escherichia coli ECOR47 = test system: Escherichia coli ECOR47
Escherichia coli ECOR49 = test system: Escherichia coli ECOR49
Escherichia coli ECOR53 = test system: Escherichia coli ECOR53
Escherichia coli ECOR61 = test system: Escherichia coli ECOR61
Escherichia coli ECOR70 = test system: Escherichia coli ECOR70
Escherichia coli J53 = test system: Escherichia coli J53

CN(C)[C@@H]1C(O)=C(C(N)=O)C(=O)[C@@]2(O)C(O)=C3C(=O)c4c(O)cccc4[C@@](C)(O)[C@H]3C[C@@H]12 [tetracycline]
[1]
Details | MIC [µg/mL]
plasmid: none | 0.833 (≈ 1.88 µM)
plasmid: pBAD18 empty | 0.5 (≈ 1.13 µM)
plasmid: pBAD18 with blaCTX-M-14 | 0.5 (≈ 1.13 µM)
plasmid: pBAD18 with blaCTX-M-15 | 0.5 (≈ 1.13 µM)
plasmid: pBAD18 with blaKPC-2 | 0.5 (≈ 1.13 µM)
plasmid: pBAD18 with blaNDM-1 | 0.5 (≈ 1.13 µM)
plasmid: pBAD18 with blaOXA-1 | 0.5 (≈ 1.13 µM)
plasmid: pBAD18 with blaOXA-48 | 0.5 (≈ 1.13 µM)
plasmid: pBAD18 with blaTEM-1 | 0.667 (≈ 1.5 µM)

CCC(C)CCCC(=O)N[C@@H](CCN)C(=O)N[C@H](C(=O)N[C@@H](CCN)C(=O)N[C@H]1CCNC(=O)[C@H]([C@@H](C)O)NC(=O)[C@H](CCN)NC(=O)[C@H](CCN)NC(=O)[C@H](CC(C)C)NC(=O)[C@@H](CC(C)C)NC(=O)[C@H](CCN)NC1=O)[C@@H](C)O (stereo partly specified) [colistin]
Details | MIC
Escherichia coli ECOR01, plasmid: none | 6 µg/mL (≈ 5.19 µM)
Escherichia coli ECOR01, plasmid: pUN4 empty | 6 µg/mL (≈ 5.19 µM)
Escherichia coli ECOR01, plasmid: pUN4 with blaCTX-M-15 | 3.33 µg/mL (≈ 2.88 µM)
Escherichia coli ECOR01, plasmid: pUN4 with blaOXA-48 | 3.17 µg/mL (≈ 2.74 µM)
Escherichia coli ECOR27, plasmid: none | 7.33 µg/mL (≈ 6.35 µM)
Escherichia coli ECOR27, plasmid: pUN4 empty | 7.33 µg/mL (≈ 6.35 µM)
Escherichia coli ECOR27, plasmid: pUN4 with blaCTX-M-15 | 4 µg/mL (≈ 3.46 µM)
Escherichia coli ECOR27, plasmid: pUN4 with blaOXA-48 | 3.67 µg/mL (≈ 3.17 µM)
Escherichia coli ECOR35, plasmid: none | 8 µg/mL (≈ 6.92 µM)
Escherichia coli ECOR35, plasmid: pUN4 empty | 6 µg/mL (≈ 5.19 µM)
Escherichia coli ECOR35, plasmid: pUN4 with blaCTX-M-15 | 4 µg/mL (≈ 3.46 µM)
Escherichia coli ECOR35, plasmid: pUN4 with blaOXA-48 | 4 µg/mL (≈ 3.46 µM)
Escherichia coli ECOR42, plasmid: none | 6.67 µg/mL (≈ 5.77 µM)
Escherichia coli ECOR42, plasmid: pUN4 empty | 6.67 µg/mL (≈ 5.77 µM)
Escherichia coli ECOR42, plasmid: pUN4 with blaCTX-M-15 | 4.67 µg/mL (≈ 4.04 µM)
Escherichia coli ECOR42, plasmid: pUN4 with blaOXA-48 | 6 µg/mL (≈ 5.19 µM)
Escherichia coli ECOR47, plasmid: none | 7.33 µg/mL (≈ 6.35 µM)
Escherichia coli ECOR47, plasmid: pUN4 empty | 6.67 µg/mL (≈ 5.77 µM)
Escherichia coli ECOR47, plasmid: pUN4 with blaCTX-M-15 | 4.67 µg/mL (≈ 4.04 µM)
Escherichia coli ECOR47, plasmid: pUN4 with blaOXA-48 | 5.33 µg/mL (≈ 4.62 µM)
Escherichia coli ECOR49, plasmid: none | 4 µg/mL (≈ 3.46 µM)
Escherichia coli ECOR49, plasmid: pUN4 empty | 6 µg/mL (≈ 5.19 µM)
Escherichia coli ECOR49, plasmid: pUN4 with blaCTX-M-15 | 3.17 µg/mL (≈ 2.74 µM)
Escherichia coli ECOR49, plasmid: pUN4 with blaOXA-48 | 2.2 µg/mL (≈ 1.9 µM)
Escherichia coli ECOR53, plasmid: none | 3.33 µg/mL (≈ 2.88 µM)
Escherichia coli ECOR53, plasmid: pUN4 empty | 4.33 µg/mL (≈ 3.75 µM)
Escherichia coli ECOR53, plasmid: pUN4 with blaCTX-M-15 | 3.33 µg/mL (≈ 2.88 µM)
Escherichia coli ECOR53, plasmid: pUN4 with blaOXA-48 | 3 µg/mL (≈ 2.6 µM)
Escherichia coli ECOR61, plasmid: none | 3.67 µg/mL (≈ 3.17 µM)
Escherichia coli ECOR61, plasmid: pUN4 empty | 4 µg/mL (≈ 3.46 µM)
Escherichia coli ECOR61, plasmid: pUN4 with blaCTX-M-15 | 3 µg/mL (≈ 2.6 µM)
Escherichia coli ECOR61, plasmid: pUN4 with blaOXA-48 | 3.33 µg/mL (≈ 2.88 µM)
Escherichia coli ECOR70, plasmid: none | 6 µg/mL (≈ 5.19 µM)
Escherichia coli ECOR70, plasmid: pUN4 empty | 6 µg/mL (≈ 5.19 µM)
Escherichia coli ECOR70, plasmid: pUN4 with blaCTX-M-15 | 3.33 µg/mL (≈ 2.88 µM)
Escherichia coli ECOR70, plasmid: pUN4 with blaOXA-48 | 3.33 µg/mL (≈ 2.88 µM)
Escherichia coli J53, plasmid: none | 4.73 µg/mL and 6 µg/mL
Escherichia coli J53, plasmid: pOXA-48 DEL (blaOXA-48 not expressed) | 4.53 µg/mL (≈ 3.92 µM)
Escherichia coli J53, plasmid: pOXA-48 PV-B (blaOXA-48) | 1.83 µg/mL (≈ 1.59 µM)
Escherichia coli J53, plasmid: pOXA-48 PV-D (blaOXA-48) | 2.17 µg/mL (≈ 1.88 µM)
Escherichia coli J53, plasmid: pOXA-48 PV-E (blaOXA-48) | 1.67 µg/mL (≈ 1.44 µM)
Escherichia coli J53, plasmid: pOXA-48 PV-K (blaOXA-48) | 1.83 µg/mL (≈ 1.59 µM)
Escherichia coli J53, plasmid: pOXA-48 PV-O (blaOXA-48) | 1.83 µg/mL (≈ 1.59 µM)
Escherichia coli J53, plasmid: pOXA-48 TET (blaOXA-48 replaced by tetC) | 3.67 µg/mL (≈ 3.17 µM)
Escherichia coli J53, plasmid: pOXA-48 WT (blaOXA-48) | 1.8 µg/mL (≈ 1.56 µM)
Escherichia coli J53, plasmid: pUN4 empty | 6 µg/mL and 5.11 µg/mL
Escherichia coli J53, plasmid: pUN4 with blaCTX-M-15 | 3.33 µg/mL (≈ 2.88 µM)
Escherichia coli J53, plasmid: pUN4 with blaOXA-48 | 3.67 µg/mL and 1.78 µg/mL
Escherichia coli J53, plasmid: pUN4 with the DEL allele of blaOXA-48 | 4.67 µg/mL (≈ 4.04 µM)
[1], plasmid: none | 7.33 µg/mL (≈ 6.35 µM)
[1], plasmid: pBAD18 empty | 6 µg/mL (≈ 5.19 µM)
[1], plasmid: pBAD18 with blaCTX-M-14 | 4 µg/mL (≈ 3.46 µM)
[1], plasmid: pBAD18 with blaCTX-M-15 | 4 µg/mL (≈ 3.46 µM)
[1], plasmid: pBAD18 with blaKPC-2 | 4.67 µg/mL (≈ 4.04 µM)
[1], plasmid: pBAD18 with blaNDM-1 | 4.67 µg/mL (≈ 4.04 µM)
[1], plasmid: pBAD18 with blaOXA-1 | 4.67 µg/mL (≈ 4.04 µM)
[1], plasmid: pBAD18 with blaOXA-48 | 3.67 µg/mL (≈ 3.17 µM)
[1], plasmid: pBAD18 with blaTEM-1 | 4.67 µg/mL (≈ 4.04 µM)

C[C@@H](O)[C@H]1C(=O)N2C(C(=O)O)=C(SCCNC=N)C[C@H]12 [imipenem]
[1]
Details | MIC [µg/mL]
plasmid: none | 0.292 (≈ 0.974 µM)
plasmid: pBAD18 empty | 0.229 (≈ 0.766 µM)
plasmid: pBAD18 with blaCTX-M-14 | 0.75 (≈ 2.51 µM)
plasmid: pBAD18 with blaCTX-M-15 | 0.375 (≈ 1.25 µM)
plasmid: pBAD18 with blaKPC-2 | 1 (≈ 3.34 µM)
plasmid: pBAD18 with blaNDM-1 | 2.5 (≈ 8.35 µM)
plasmid: pBAD18 with blaOXA-1 | 0.583 (≈ 1.95 µM)
plasmid: pBAD18 with blaOXA-48 | 1.5 (≈ 5.01 µM)
plasmid: pBAD18 with blaTEM-1 | 0.458 (≈ 1.53 µM)

Reference: the supplement of paper PMC11148083
